This note sets out measurements from PubChem BioAssay AID463173 (ICCB-Longwood Screening Facility, Harvard Medical School, 2010).

The campaign covered roughly 52,000 compounds. About 1,700 (3.3%) were called active. No stated cut-off is given here; in the data, active means survival mostly below about 52% (no sharp cut-off); inactive means mostly above about 56%. Some of the results follow.

In this test the test system is Wild type. Nature of the test: S. aureus survival, RN4220 and DeltatarO strains – OD600, teichoic acid synthesis inhibitors, primary screen (AID 463173). The note with it: S. aureus RN4220 wild type/DeltatarO growth, OD600, 18 h, stronger effect = lower value; concentration not given here unless noted.
Regarding `CCOC(=O)c1ccc(NC(=O)c2sc3nc4c(cc3c2N)N2CCC4CC2)cc1`, the survival was inactive: 84%. Under `COc1ccc(OCC(=O)N2CCN(Cc3cccc(OC)c3OC)CC2)cc1` stands inactive: 135%; under `Cc1cc(C)cc(OCC(=O)Nc2ccc(Cl)cc2C(=O)c2ccccc2)c1`, inactive: 73%. Regarding `C1CNC2NCCNC2N1` (stereo not drawn), the survival was inactive: 125%. Under `Nc1nonc1C1=NOC(c2nonc2N)=NO1` stands inactive: 98%. In the case of `Cc1n[nH]c(C)c1CCN`, the survival was inactive: 108%. Under `CCCCCn1c(=O)c(C(=O)Nc2ccccc2S(N)(=O)=O)c(O)c2ccccc21` stands active: 0%. Consider `COc1ccccc1NC(=O)N(Cc1ccc2c(c1)OCO2)C1CCN(Cc2ccccc2)CC1`, for which the survival is inactive: 78%. The same measure for `Cc1cc(N)n(C2CCN(C)CC2)n1`: inactive: 103%; for `Cc1cccc(-n2c(/C=C/c3c(C)[nH]c4ccccc34)nc3ccccc3c2=O)c1`: inactive: 108%; for `Nc1c(C(=O)Nc2ccc(Br)cc2F)sc2nc3c(cc12)N1CCC3CC1`: inactive: 134%. Under `COc1cc(C(c2c(O)c3ccccc3oc2=O)c2c(C)n(C)n(-c3ccccc3)c2=O)ccc1OCC(=O)O` (stereo not drawn) stands inactive: 95%; under `O=C(Nc1ccc(Cl)cc1C(=O)c1ccccc1)c1ccccc1Br`, active: 5%; under `N#CC(C#N)=Cc1cc(Br)cs1`, inactive: 94%.

Regarding `Cc1c(Cl)cccc1NC(=O)CN1C(=O)C(C)N=C(c2ccccc2)c2ccccc21` (stereo not drawn), the survival was inactive: 93%. The same measure for `O=C(CN1CCCC1=O)NCCc1ccccc1`: inactive: 101%; for `O=C(c1ccc2ccccc2c1)C12CN3CN(CN(C3)C1)C2`: inactive: 86%; for `Cn1cc(/C=C/c2nc3ccccc3c(=O)n2-c2ccccc2)c2ccccc21`: inactive: 72%. Under `O=C(Nc1ccc2c(c1)OCO2)c1cccn(Cc2cccc(F)c2)c1=O` stands inactive: 72%.

Consider `Nc1c(C(=O)Nc2ccc(Cl)cc2)sc2nc3c(cc12)N1CCC3CC1`, for which the survival was inactive: 95%. Consider `COc1cc(C(c2c(O)c3ccccc3oc2=O)c2c(C)n(C)n(-c3ccccc3)c2=O)ccc1O` (stereo not drawn), for which the survival is inactive: 62%. The same measure for `CC1=CC(=O)C2=C(C)CC(O)C3C(C)C(=O)OC3C12` (stereo not drawn): inactive: 117%; for `CN1CCN(c2oc(-c3ccc(COc4ccccc4)o3)nc2C#N)CC1`: inactive: 72%; for `O=c1c2ccccc2nc(/C=C/c2ccccc2)n1-c1ccccc1F`: inactive: 97%. Under `Cc1nnc(NC(=O)c2cccn(Cc3cccc(Cl)c3)c2=O)s1` stands inactive: 70%. For `COc1ccc(CN2C(=O)CC(=O)NC2=S)cc1`, the survival is inactive: 107%. As to `Cc1cccc(CSc2nc3c(cc2C#N)CN(C)CC3)c1`, the survival is inactive: 114%. As for `CCCC12CN3CC(CCC)(CN(C1)C3c1ccccn1)C2=O` (stereo not drawn), the survival is inactive: 84%. The same measure for `N#CC(C#N)=Cc1ccc(N2CCCC2)cc1`: inactive: 106%; for `c1cc(C2CCNCC2)ccn1`: inactive: 104%; for `COc1cccc(/C=C/c2nc3ccccc3c(=O)n2-c2ccc(Cl)cc2)c1OC`: inactive: 69%.

Consider `Cc1ccc(-n2c(/C=C/c3cccs3)nc3ccccc3c2=O)cc1C`, for which the survival is inactive: 99%. Take `C=CCN1C(=O)CN=C(c2cccs2)c2c1sc1c2CCC1`: the survival was inactive: 112%. The same measure for `COc1ccc(C)cc1NC(=O)c1cccn(Cc2cccc([N+](=O)[O-])c2)c1=O`: inactive: 93%.

`CN1C2CCC1CC(OC(=O)C1(c3ccccc3)CCCC1)C2` (stereo not drawn): the survival is inactive: 103%. For the molecule `CSc1ccc(CN2CCN(C(=O)COc3ccc(C)cc3)CC2)cc1`, the survival was inactive: 65%. Under `CCOc1ccc2nc(NC(=O)c3cccn(Cc4ccccc4)c3=O)sc2c1` stands inactive: 69%; under `CN1CCc2nc3sc4c(=O)[nH]c(=O)[nH]c4c3cc2C1`, inactive: 107%. `CN1CCN(C2CC3(C)C(CCC4C3CCC3(C)C(O)C(N5CCN(C)CC5)CC43)CC2O)CC1` (stereo not drawn): the survival was inactive: 99%.

For `COc1ccc(OC)c(NC(=O)Cn2cc(C(=O)c3ccccc3)c3ccccc32)c1`, the survival was inactive: 78%. The same measure for `O=C(Nc1ccc(Cl)cc1C(=O)c1ccccc1)c1cc(Cl)cc(Cl)c1`: inactive: 140%; for `CN1CCCC1c1ccc(N)nc1` (stereo not drawn): inactive: 108%. For `COc1ccc(OC)c(/C=C2\C(=O)C3CCN2CC3)c1`, the survival is inactive: 116%. On to `CCOc1ccc2nc(NC(=O)c3cccn(Cc4ccc(Cl)cc4)c3=O)sc2c1`, for which the survival was inactive: 63%. The same measure for `COc1ccc(-c2nc(CN3C(=O)CN=C(c4ccccc4)c4cc(Cl)ccc43)c(C)o2)cc1`: inactive: 73%; for `O=C(Nc1ccc2c(c1)OCCO2)c1cccn(Cc2cccc(F)c2)c1=O`: inactive: 82%.

With `CCc1ccccc1NC(=O)c1cccn(Cc2ccccc2F)c1=O`, the survival was inactive: 60%. Under `COc1ccc(NC(C)=O)cc1NC(=O)c1cccn(Cc2ccccc2)c1=O` stands inactive: 59%; under `CCOC(=O)C1C2NC(=S)NC1(C)Oc1ccccc12` (stereo not drawn), inactive: 104%; under `CC(C)C(=O)N1N=C(c2cccnc2)CC1(O)C(F)(F)F` (stereo not drawn), inactive: 112%.

For `N#Cc1cccc(NC(=O)CSc2nc3c(cc2C#N)N2CCC3CC2)c1`, the survival is inactive: 76%. The same measure for `Cc1nnc(NC(=O)c2cccn(Cc3cccc([N+](=O)[O-])c3)c2=O)s1`: inactive: 83%; for `CC(=O)NC1CC2CCC(C1)N2` (stereo not drawn): inactive: 94%; for `O=c1c2ccccc2nc(-c2ccccc2)n1-c1ccccn1`: inactive: 96%. Under `CC1(C)C(C(=O)Nc2cc(Cl)ccn2)C1(C)C` stands inactive: 124%.

For the molecule `Cc1ccccc1-n1c(/C=C/c2ccc(O)cc2)nc2ccccc2c1=O`, the survival was inactive: 48%. The same measure for `CC(C)(C)c1ccc(OCC(=O)Nc2ccc(Cl)cc2C(=O)c2ccccc2)cc1`: inactive: 63%; for `CCOc1ccccc1CN(CCc1ccc2c(c1)OCO2)Cc1ccc(CC)cc1`: inactive: 50%; for `CSc1ncc(C(=O)Nc2ccc(Cl)cc2C(=O)c2ccccc2)c(C)n1`: inactive: 88%. The same measure for `O=c1cccc2n1CC1CC2CN(c2nc(Cl)nc(Cl)n2)C1` (stereo not drawn): inactive: 103%. `CCN(CC)C(=O)c1ccc(NC(=O)Cn2nc(-c3ccc(C)cc3)c3ccccc3c2=O)cc1`: the survival was inactive: 80%. Under `Cc1ccc(Cn2cccc(C(=O)Nc3nnc(C)s3)c2=O)cc1` stands inactive: 84%; under `CCOC(=O)c1ccc(NC(=O)c2cccn(Cc3ccc(C)cc3)c2=O)cc1`, inactive: 73%.
